# In all, about 2,900 compounds were measured (“IRF Lucia reporter activity, fold change vs agonist alone”: median about 0.9, highest 2% from about 2.8 on). The list shows a part of the results.
# Columns and labels:
# [1] = tested on: RAW-Dual; assay: IRF Lucia reporter activity, fold change vs agonist alone; cytotoxicity flag (confluency mask): not cytotoxic; higher = enhanced IRF activity
# Procedure, shortened: (§1)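 RAW-Dual macrophages (50,000 cells/well in DMEM, 384-well plates) received 50 nL of library stock by pin tool, then a PRR agonist 1 h later, and were kept at 37 °C, 5% CO2. After 20 hours, supernatant was read for IRF by QuantiLuc luminescence and for NF-κB by QuantiBlue absorbance at 620 nm. Reporter activity is fold change over agonist-alone wells. Cytotoxic wells had IncuCyte confluency below 70% of agonist controls in both mask sets.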
# [2] = tested on: RAW-Dual; assay: IRF Lucia reporter activity, fold change vs agonist alone; higher = enhanced IRF activity; conditions: library stock concentration (final ~1000-fold dilution): 10 mM, agonist: MPLA (TLR4) […]
# Procedure, shortened: as §1
# [3] = tested on: RAW-Dual; assay: IRF Lucia reporter activity, fold change vs agonist alone; cytotoxicity flag (confluency mask): cytotoxic (confluency <70% of control); higher = enhanced IRF activity
# Procedure, shortened: as §1
# [4] = agonist: 3'3'-cGAMP (STING) 10 ug/mL
# [5] = cytotoxicity flag (confluency mask): not cytotoxic
structure (smiles),measurement,setting,value
CC(C)(C)c1[nH]cnc1C=c1[nH]c(=O)c(=Cc2ccccc2)[nH]c1=O (library stock concentration (final ~1000-fold dilution): 10 mM),IRF Lucia reporter activity,[1]; [4],0.101
same,IRF Lucia reporter activity,[1]; agonist: LPS (TLR4) 0.1 ug/mL,1.76
COC(=O)CNC(=O)C(=O)OC,IRF Lucia reporter activity,[2]; [5],1.04
COC(=O)CNC(=O)C(=O)OC (library stock concentration (final ~1000-fold dilution): 10 mM),IRF Lucia reporter activity,[1]; [4],0.889
same,IRF Lucia reporter activity,[1]; agonist: LPS (TLR4) 0.1 ug/mL,1.23
Br.N#Cc1ccc(-c2csc(NN=C3CCCC3)n2)cc1 (library stock concentration (final ~1000-fold dilution): 10 mM),IRF Lucia reporter activity,[1]; [4],1.19
same,IRF Lucia reporter activity,[1]; agonist: LPS (TLR4) 0.1 ug/mL,0.644
Oc1ccc(OCc2ccccc2)cc1 (library stock concentration (final ~1000-fold dilution): 10 mM),IRF Lucia reporter activity,[1]; [4],0.738
same,IRF Lucia reporter activity,[1]; agonist: LPS (TLR4) 0.1 ug/mL,1.05
Oc1ccc(OCc2ccccc2)cc1,IRF Lucia reporter activity,[2]; [5],1.27
COc1cc(O)c(CC=C(C)C)c(O)c1C(=O)/C=C/c1ccc(O)cc1 (library stock concentration (final ~1000-fold dilution): 10 mM),IRF Lucia reporter activity,[3]; [4],0.0595
same,IRF Lucia reporter activity,[3]; agonist: LPS (TLR4) 0.1 ug/mL,0.416
Cc1cc(Nc2ncnc3ccc(-c4ccc(CNCCS(C)(=O)=O)o4)cc23)ccc1Oc1ccn2ncnc2c1,IRF Lucia reporter activity,[2]; [5],0.778
Cc1cc(Nc2ncnc3ccc(-c4ccc(CNCCS(C)(=O)=O)o4)cc23)ccc1Oc1ccn2ncnc2c1 (library stock concentration (final ~1000-fold dilution): 10 mM),IRF Lucia reporter activity,[1]; [4],0.0837
same,IRF Lucia reporter activity,[1]; agonist: LPS (TLR4) 0.1 ug/mL,0.713
Cc1ccc(Cl)c(Nc2ccccc2C(=O)O)c1Cl (library stock concentration (final ~1000-fold dilution): 10 mM),IRF Lucia reporter activity,[1]; [4],1.01
same,IRF Lucia reporter activity,[1]; agonist: LPS (TLR4) 0.1 ug/mL,1.05
Cc1ccc(Cl)c(Nc2ccccc2C(=O)O)c1Cl,IRF Lucia reporter activity,[2]; [5],0.95
CCCN(CCC)C(=O)C1=Cc2ccc(-c3ccc(C(=O)N4CCCC4)cc3)cc2N=C(N)C1 (library stock concentration (final ~1000-fold dilution): 1 mM),IRF Lucia reporter activity,[1]; [4],1
same,IRF Lucia reporter activity,[1]; agonist: LPS (TLR4) 0.1 ug/mL,1.11
O=C1Nc2ccc(I)cc2C1=Cc1cc(Br)c(O)c(Br)c1,IRF Lucia reporter activity,[2]; cytotoxicity flag (confluency mask): cytotoxic (confluency <70% of control),0.615
O=C1Nc2ccc(I)cc2C1=Cc1cc(Br)c(O)c(Br)c1 (library stock concentration (final ~1000-fold dilution): 10 mM),IRF Lucia reporter activity,[3]; [4],0.214
same,IRF Lucia reporter activity,[3]; agonist: LPS (TLR4) 0.1 ug/mL,0.418
O=C(c1cn(Cc2cncn2Cc2ccc(Br)cc2)cc1-c1cccc2ccccc12)N1CCOCC1,IRF Lucia reporter activity,[2]; [5],1.36
O=C(c1cn(Cc2cncn2Cc2ccc(Br)cc2)cc1-c1cccc2ccccc12)N1CCOCC1 (library stock concentration (final ~1000-fold dilution): 10 mM),IRF Lucia reporter activity,[1]; [4],0.237
same,IRF Lucia reporter activity,[1]; agonist: LPS (TLR4) 0.1 ug/mL,0.797
O=C1Nc2ccccc2/C1=C1\Nc2ccccc2C1=O,IRF Lucia reporter activity,[2]; [5],0.979
O=C1Nc2ccccc2/C1=C1\Nc2ccccc2C1=O (library stock concentration (final ~1000-fold dilution): 10 mM),IRF Lucia reporter activity,[1]; [4],0.96
same,IRF Lucia reporter activity,[1]; agonist: LPS (TLR4) 0.1 ug/mL,0.875
O=c1cc(-c2ccc(O)c(-c3c(O)cc(O)c4c(=O)cc(-c5ccc(O)cc5)oc34)c2)oc2cc(O)cc(O)c12 (library stock concentration (final ~1000-fold dilution): 10 mM),IRF Lucia reporter activity,[1]; [4],0.0226
same,IRF Lucia reporter activity,[1]; agonist: LPS (TLR4) 0.1 ug/mL,0.0594
O=C1c2c(O)cccc2C(C2OC(CO)C(O)C(O)C2O)c2cc(CO)cc(O)c21 (stereo unspecified),IRF Lucia reporter activity,[2]; [5],1.01
O=C1c2c(O)cccc2C(C2OC(CO)C(O)C(O)C2O)c2cc(CO)cc(O)c21 (stereo unspecified) (library stock concentration (final ~1000-fold dilution): 10 mM),IRF Lucia reporter activity,[1]; [4],0.954
same,IRF Lucia reporter activity,[1]; agonist: LPS (TLR4) 0.1 ug/mL,1.26
COc1ccccc1S(=O)(=O)Nc1ccc2c(c1)CN(C)C(=O)N2 (library stock concentration (final ~1000-fold dilution): 10 mM),IRF Lucia reporter activity,[1]; [4],0.45
same,IRF Lucia reporter activity,[1]; agonist: LPS (TLR4) 0.1 ug/mL,0.27
COc1ccccc1S(=O)(=O)Nc1ccc2c(c1)CN(C)C(=O)N2,IRF Lucia reporter activity,[2]; [5],0.214
CC(C)C1=CC2=CCC3C(C)(C(=O)O)CCCC3(C)C2CC1 (stereo unspecified) (library stock concentration (final ~1000-fold dilution): 10 mM),IRF Lucia reporter activity,[1]; [4],0.891
same,IRF Lucia reporter activity,[1]; agonist: LPS (TLR4) 0.1 ug/mL,1.32
CC(C)C1=CC2=CCC3C(C)(C(=O)O)CCCC3(C)C2CC1 (stereo unspecified),IRF Lucia reporter activity,[2]; [5],1.05
CCCCC(=O)N(Cc1ccc(-c2ccccc2-c2nn[nH]n2)cc1)C(C(=O)O)C(C)C (stereo unspecified) (library stock concentration (final ~1000-fold dilution): 10 mM),IRF Lucia reporter activity,[1]; [4],0.655
same,IRF Lucia reporter activity,[1]; agonist: LPS (TLR4) 0.1 ug/mL,0.605
CCCCC(=O)N(Cc1ccc(-c2ccccc2-c2nn[nH]n2)cc1)C(C(=O)O)C(C)C (stereo unspecified),IRF Lucia reporter activity,[2]; [5],0.643
FC(F)c1nc2ccccc2n1-c1nc(N2CCOCC2)nc(N2CCOCC2)n1,IRF Lucia reporter activity,[2]; [5],1.21
FC(F)c1nc2ccccc2n1-c1nc(N2CCOCC2)nc(N2CCOCC2)n1 (library stock concentration (final ~1000-fold dilution): 10 mM),IRF Lucia reporter activity,[1]; [4],0.46
same,IRF Lucia reporter activity,[1]; agonist: LPS (TLR4) 0.1 ug/mL,1.62

# Reference: the supplement of paper PMC10037445
